The supplement of paper PMC8728848
The list shows a part of the results.

Columns and labels:
Test in all cases: glycan array binding signal (z-score within array); higher = stronger binding
Details in all cases: glycan notation: IUPAC condensed, linker removed
[1] = molecular target: GlcNAc(b1-3)Gal(b1-4)GlcNAc(b1-3)GalNAc
In short: (§1)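 The binding signal is a Z-score computed within each array. Data were drawn from 3228 arrays in the Consortium for Functional Glycomics database, restricted to those with a known protein sequence. Scores were averaged over arrays of the same protein sequence at different concentrations or buffers, and over linkers, and negative values can be taken as non-binding.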

[2] = molecular target: GlcNAc(b1-3)Gal(b1-4)GlcNAc(b1-3)[GlcNAc(b1-3)Gal(b1-4)GlcNAc(b1-3)]GalNAc
In short: as §1

[3] = molecular target: GlcNAc(b1-3)Gal(b1-4)GlcNAc(b1-6)[Gal(b1-3)]GalNAc
In short: as §1

[4] = molecular target: GlcNAc(b1-3)Gal(b1-4)GlcNAc(b1-6)[GlcNAc(b1-3)Gal(b1-3)]GalNAc
In short: as §1

[5] = molecular target: GlcNAc(b1-3)Gal(b1-4)GlcNAc(b1-6)[GlcNAc(b1-3)]Gal(b1-4)GlcNAc
In short: as §1

GlcNAc(b1-3)GalNAc = molecular target: GlcNAc(b1-3)GalNAc
In short: as §1

GlcNAc(b1-3)Man = molecular target: GlcNAc(b1-3)Man
In short: as §1

[6] = molecular target: GlcNAc(b1-3)[GlcNAc(b1-4)][GlcNAc(b1-6)]GlcNAc
In short: as §1

[7] = molecular target: GlcNAc(b1-3)[GlcNAc(b1-6)]Gal(b1-4)GlcNAc
In short: as §1

[8] = molecular target: GlcNAc(b1-3)[GlcNAc(b1-6)]GalNAc
In short: as §1

[9] = molecular target: GlcNAc(b1-4)Gal(b1-4)GlcNAc
In short: as §1

GlcNAc(b1-4)GlcNAc = molecular target: GlcNAc(b1-4)GlcNAc
In short: as §1

[10] = molecular target: GlcNAc(b1-4)GlcNAc(b1-4)GlcNAc
In short: as §1

[11] = molecular target: GlcNAc(b1-4)GlcNAc(b1-4)GlcNAc(b1-4)GlcNAc(b1-4)GlcNAc
In short: as §1

[12] = molecular target: GlcNAc(b1-4)GlcNAc(b1-4)GlcNAc(b1-4)GlcNAc(b1-4)GlcNAc(b1-4)GlcNAc
In short: as §1

[13] = molecular target: GlcNAc(b1-4)[GlcNAc(b1-6)]GalNAc
In short: as §1

[14] = molecular target: GlcNAc(b1-6)Gal(b1-4)GlcNAc
In short: as §1

GlcNAc(b1-6)GalNAc = molecular target: GlcNAc(b1-6)GalNAc
In short: as §1

[15] = molecular target: GlcNAc6S(b1-3)Gal(b1-4)GlcNAc
In short: as §1

Kdn(a2-3)Gal(b1-3)GalNAc = molecular target: Kdn(a2-3)Gal(b1-3)GalNAc
In short: as §1

Kdn(a2-3)Gal(b1-3)GlcNAc = molecular target: Kdn(a2-3)Gal(b1-3)GlcNAc
In short: as §1

Kdn(a2-3)Gal(b1-4)Glc = molecular target: Kdn(a2-3)Gal(b1-4)Glc
In short: as §1

Kdn(a2-3)Gal(b1-4)GlcNAc = molecular target: Kdn(a2-3)Gal(b1-4)GlcNAc
In short: as §1

[16] = molecular target: Kdn(a2-3)Gal(b1-4)[Fuc(a1-3)]GlcNAc
In short: as §1

Kdn(a2-6)Gal(b1-4)GlcNAc = molecular target: Kdn(a2-6)Gal(b1-4)GlcNAc
In short: as §1

[17] = molecular target: Man(a1-2)Man(a1-2)Man(a1-3)Man
In short: as §1

[18] = molecular target: Man(a1-2)Man(a1-2)Man(a1-6)[Man(a1-3)]Man
In short: as §1

Man(a1-2)Man(a1-3)Man = molecular target: Man(a1-2)Man(a1-3)Man
In short: as §1

[19] = molecular target: Man(a1-2)Man(a1-3)[Man(a1-2)Man(a1-6)]Man
In short: as §1

[20] = molecular target: Man(a1-2)Man(a1-3)[Man(a1-2)Man(a1-6)]Man(a1-6)[Man(a1-2)Man(a1-2)Man(a1-3)]Man
In short: as §1

[21] = molecular target: Man(a1-2)Man(a1-3)[Man(a1-2)Man(a1-6)]Man(a1-6)[Man(a1-2)Man(a1-2)Man(a1-3)]Man(b1-4)GlcNAc(b1-4)GlcNAc
In short: as §1

[22] = molecular target: Man(a1-2)Man(a1-3)[Man(a1-6)]Man(a1-6)[Man(a1-2)Man(a1-3)]Man(b1-4)GlcNAc(b1-4)GlcNAc
In short: as §1

[23] = molecular target: Man(a1-2)Man(a1-6)[Man(a1-3)]Man(a1-6)[Man(a1-2)Man(a1-2)Man(a1-3)]Man
In short: as §1

[24] = molecular target: Man(a1-2)Man(a1-6)[Man(a1-3)]Man(a1-6)[Man(a1-2)Man(a1-2)Man(a1-3)]Man(b1-4)GlcNAc(b1-4)GlcNAc
In short: as §1

Man(a1-3)[Man(a1-6)]Man = molecular target: Man(a1-3)[Man(a1-6)]Man
In short: as §1

[25] = molecular target: Man(a1-3)[Man(a1-6)]Man(a1-6)[Man(a1-2)Man(a1-3)]Man(b1-4)GlcNAc(b1-4)GlcNAc
In short: as §1

[26] = molecular target: Man(a1-3)[Man(a1-6)]Man(a1-6)[Man(a1-3)]Man
In short: as §1

[27] = molecular target: Man(a1-3)[Man(a1-6)]Man(a1-6)[Man(a1-3)]Man(b1-4)GlcNAc(b1-4)GlcNAc
In short: as §1

[28] = molecular target: Man(a1-3)[Man(a1-6)]Man(b1-4)GlcNAc(b1-4)GlcNAc
In short: as §1

[29] = molecular target: Man(a1-3)[Man(a1-6)]Man(b1-4)GlcNAc(b1-4)[Fuc(a1-6)]GlcNAc
In short: as §1

Man(a1-6)Man = molecular target: Man(a1-6)Man
In short: as §1

Man(b1-4)GlcNAc = molecular target: Man(b1-4)GlcNAc
In short: as §1

MurNAc(b1-4)GlcNAc = molecular target: MurNAc(b1-4)GlcNAc
In short: as §1

Neu5Ac(a2-3)Gal = molecular target: Neu5Ac(a2-3)Gal
In short: as §1

[30] = molecular target: Neu5Ac(a2-3)Gal(b1-3)GalNAc
In short: as §1

[31] = molecular target: Neu5Ac(a2-3)Gal(b1-3)GalNAc(b1-3)Gal(a1-4)Gal(b1-4)Glc
In short: as §1

[32] = molecular target: Neu5Ac(a2-3)Gal(b1-3)GalNAc(b1-4)[Neu5Ac(a2-3)]Gal(b1-4)Glc
In short: as §1

[33] = molecular target: Neu5Ac(a2-3)Gal(b1-3)GalNAc(b1-4)[Neu5Ac(a2-8)Neu5Ac(a2-3)]Gal(b1-4)Glc
In short: as §1

[34] = molecular target: Neu5Ac(a2-3)Gal(b1-3)GalNAc6S
In short: as §1

[35] = molecular target: Neu5Ac(a2-3)Gal(b1-3)GlcNAc
In short: as §1

[36] = molecular target: Neu5Ac(a2-3)Gal(b1-3)GlcNAc(b1-2)Man
In short: as §1

[37] = molecular target: Neu5Ac(a2-3)Gal(b1-3)GlcNAc(b1-2)Man(a1-3)[GlcNAc(b1-4)][Neu5Ac(a2-3)Gal(b1-3)GlcNAc(b1-2)Man(a1-6)]Man(b1-4)GlcNAc(b1-4)GlcNAc
In short: as §1

[38] = molecular target: Neu5Ac(a2-3)Gal(b1-3)GlcNAc(b1-2)Man(a1-3)[Neu5Ac(a2-3)Gal(b1-3)GlcNAc(b1-2)Man(a1-6)]Man(b1-4)GlcNAc(b1-4)GlcNAc
In short: as §1

[39] = molecular target: Neu5Ac(a2-3)Gal(b1-3)GlcNAc(b1-3)Gal(b1-3)GlcNAc
In short: as §1

[40] = molecular target: Neu5Ac(a2-3)Gal(b1-3)GlcNAc(b1-3)Gal(b1-4)GlcNAc
In short: as §1

[41] = molecular target: Neu5Ac(a2-3)Gal(b1-3)GlcNAc(b1-3)GalNAc
In short: as §1

[42] = molecular target: Neu5Ac(a2-3)Gal(b1-3)GlcNAc(b1-4)Gal(b1-4)Glc
In short: as §1

[43] = molecular target: Neu5Ac(a2-3)Gal(b1-3)GlcNAc(b1-6)GalNAc
In short: as §1

[44] = molecular target: Neu5Ac(a2-3)Gal(b1-3)GlcNAc6S
In short: as §1

[45] = molecular target: Neu5Ac(a2-3)Gal(b1-3)[Fuc(a1-4)]GlcNAc
In short: as §1

B1: Blon2468mut (Bifidobacterium longum) (protein)
chain: MTFIKQMMPRYVASMTAGIVAAAMAATCAFAPVANADAVSPTQETIQSTGRHFMVYYRAWRDVTMKGVNTDLPDDNWISMYDIPYGVDVVNIFSYVPSGQEEQAQPFYDKLKSDYAPYLHSRGIKLVRGIDYTGVAVNGFRTFMKEQNKTESEATEADYDAYAKQVIDKYMISVGLDGLDIDMQAHPNDADVKISDNVIRALSKHIGPKSAKPDTTMFLYDTNGSYLNPFKNVAECFDYVAYQQYGSSSDRTARAAADYQPYIGNEFVPGLTFPEEGDMNNRWYDATEPYEESHFYQVASYVREHNLGGMFVYALDRDGRNYDEDLRRIVPSNLLWTKTAIAESEGMALDTAKTAANHYLDRMSLRQVIDDNAASADKARDMVGKAANLYETNKAVLGGDYGEGFSNTYDPTLEAGLLGIDISVLQQQIDKSSEIIGADTAESDAKTALRMARDAAIDGLTGKIYTADQVSAWSQALKAALDATVPVPTPDSTDQNGNRDKVTNHKVQGQPKQLSATGISTDIIVAVGVTLAIAGVALSLSRKLS
- glycan array binding signal (z-score) [1]: -0.082
- glycan array binding signal (z-score) [2]: -0.083
- glycan array binding signal (z-score) [3]: -0.043
- glycan array binding signal (z-score) [4]: -0.059
- glycan array binding signal (z-score) [5]: -0.08
- glycan array binding signal (z-score) (GlcNAc(b1-3)GalNAc): -0.096
- glycan array binding signal (z-score) (GlcNAc(b1-3)Man): -0.071
- glycan array binding signal (z-score) [6]: -0.054
- glycan array binding signal (z-score) [7]: -0.033
- glycan array binding signal (z-score) [8]: -0.055
- glycan array binding signal (z-score) [9]: -0.052
- glycan array binding signal (z-score) (GlcNAc(b1-4)GlcNAc): -0.054
- glycan array binding signal (z-score) [10]: -0.097
- glycan array binding signal (z-score) [11]: -0.064
- glycan array binding signal (z-score) [12]: -0.052
- glycan array binding signal (z-score) [13]: -0.043
- glycan array binding signal (z-score) [14]: -0.061
- glycan array binding signal (z-score) (GlcNAc(b1-6)GalNAc): -0.094
- glycan array binding signal (z-score) [15]: -0.073
- glycan array binding signal (z-score) (Kdn(a2-3)Gal(b1-3)GalNAc): -0.082
- glycan array binding signal (z-score) (Kdn(a2-3)Gal(b1-3)GlcNAc): -0.089
- glycan array binding signal (z-score) (Kdn(a2-3)Gal(b1-4)Glc): -0.054
- glycan array binding signal (z-score) (Kdn(a2-3)Gal(b1-4)GlcNAc): -0.074
- glycan array binding signal (z-score) [16]: -0.076
- glycan array binding signal (z-score) (Kdn(a2-6)Gal(b1-4)GlcNAc): -0.092
- glycan array binding signal (z-score) [17]: -0.046
- glycan array binding signal (z-score) [18]: -0.034
- glycan array binding signal (z-score) (Man(a1-2)Man(a1-3)Man): -0.086
- glycan array binding signal (z-score) [19]: -0.065
- glycan array binding signal (z-score) [20]: -0.095
- glycan array binding signal (z-score) [21]: -0.037
- glycan array binding signal (z-score) [22]: -0.083
- glycan array binding signal (z-score) [23]: -0.044
- glycan array binding signal (z-score) [24]: -0.041
- glycan array binding signal (z-score) (Man(a1-3)[Man(a1-6)]Man): -0.056
- glycan array binding signal (z-score) [25]: -0.054
- glycan array binding signal (z-score) [26]: 0.323
- glycan array binding signal (z-score) [27]: -0.065
- glycan array binding signal (z-score) [28]: 6.11
- glycan array binding signal (z-score) [29]: 22.6
- glycan array binding signal (z-score) (Man(a1-6)Man): -0.057
- glycan array binding signal (z-score) (Man(b1-4)GlcNAc): -0.072
- glycan array binding signal (z-score) (MurNAc(b1-4)GlcNAc): -0.087
- glycan array binding signal (z-score) (Neu5Ac(a2-3)Gal): -0.061
- glycan array binding signal (z-score) [30]: -0.088
- glycan array binding signal (z-score) [31]: -0.08
- glycan array binding signal (z-score) [32]: -0.087
- glycan array binding signal (z-score) [33]: -0.082
- glycan array binding signal (z-score) [34]: -0.077
- glycan array binding signal (z-score) [35]: -0.075
- glycan array binding signal (z-score) [36]: -0.092
- glycan array binding signal (z-score) [37]: -0.075
- glycan array binding signal (z-score) [38]: -0.047
- glycan array binding signal (z-score) [39]: -0.074
- glycan array binding signal (z-score) [40]: -0.094
- glycan array binding signal (z-score) [41]: -0.031
- glycan array binding signal (z-score) [42]: -0.062
- glycan array binding signal (z-score) [43]: -0.049
- glycan array binding signal (z-score) [44]: -0.058
- glycan array binding signal (z-score) [45]: -0.078
